# ± gives the standard deviation of the averaged measurements. This is one part of the list.
# Test system: PfAP2-I AP2 domain 3 (GST-tagged)
# Test: gcPBM binding intensity (ln(normalized median fluorescence intensity)); higher = stronger DNA binding
# Summary of the method: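 An Agilent 4 × 180k array of primer-extended double-stranded 36-bp intergenic genomic probes, with negative controls, was incubated for 1 h with GST-tagged P. falciparum DNA-binding domains expressed in E. coli. Alexa488 anti-GST antibody detected bound protein, scanned at 488 nm. Binding intensity is the highest Masliner-normalised natural-log median intensity across replicate spots of either probe orientation.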
row,Sequence,gcPBM binding intensity (ln)
1,CTGTTTTTGTTTTAAAGTACATTGTTCAATATACAT [XGTACX_site5288],8.15 ± 0.22
2,ATATAAATAATATAAATACACACTAAAAAAAATATA [CACACA_site542],7.71 ± 0.56
3,AGGGAATAATATTAATGTACATATATGAACTTGTTT [XGTACX_site6089],7.82 ± 0.57
4,TATAAAAAGGAAAAATAAAAATAAAAATAAAAATTA [CACACA_negctrl_site1822],7.22 ± 0.7
5,TCTTTTAAAAATTAAGTGCATGTCCTTATAACAAAA,8.43 ± 0.32
6,AAAAAAATAATGTACACACACATATCTGTTTATATA [CACACA_site4270],7.88 ± 0.46
7,ATATTTATATATATATGTACATATGTGTGTTTTTAT [XGTACX_site3956],7.82 ± 0.35
8,TCATAAACATTATGCACACAAAAATAAAAAAAAATA [CACACA_site1115],9.8 ± 0.56
9,ATATATAACTTTTCTTAACACACAAAAAACAAAAAT [CACACA_site8748],8.09 ± 0.59
10,ATAAAATATATATGCACACACATATATATTTCATAC [CACACA_site3547],9.5 ± 0.14
11,ACATAAAATAAATATACACACATATGTATATATTAT [CACACA_site3041],7.69 ± 0.33
12,AAAAGAATTTAGAAGGCATGCACTTAAACATGGATA [TGCATGCA_site699],8.01 ± 0.65
13,ATATATATATATATGTGTACTTATAAATATATCTGT [XGTACX_site4337],9.32 ± 0.42
14,AATATTTAAAACAAATCACACATGTATCCATAAATG [CACACA_site5308],7.5 ± 0.65
15,ATATCCCATATGTAATGTACTTACACTTTCTTAATT [XGTACX_site7020],7.98 ± 0.83
16,TAAATATTTTATTGTACACACTTTTTATGAATGATG [CACACA_site5694],8.12 ± 0.29
17,TGCTTATCCATTTCTACACACAAAAAAAAAAAAAAA [CACACA_site37],8.11 ± 0.47
18,AAATGGGTTTATTTAACACACAAAAGAAAAAATATA [CACACA_site1938],7.82 ± 0.63
19,TATATATATTTATGTTGTACAAAATATTATTACGTA [XGTACX_site5384],7.91 ± 0.48
20,TTATATTATAACAAACGTACGAATTTTATACAAATA [XGTACX_site7258],7.7 ± 0.42
21,TATTTTTACAATGGTAGTACCATTTTGAATCTTTGT [XGTACX_site6092],7.62 ± 0.49
22,CACCCGCACGTATTTGCACACATTGCCACGTAATTA [CACACA_site5786],10.2 ± 0.23

row,Sequence,gcPBM binding intensity (ln)
1,TCGGTATCTGTTCAAAGTACACATTTGTATACAAAA [XGTACX_site1890],7.97 ± 0.34
2,ACACTATCTTAGATTTGTACATATTTATATATGTAT [XGTACX_site8739],7.64 ± 0.56
3,TATATAACATATGGGACACACATGCAACTGTTATAT [CACACA_site3792],7.99 ± 0.71
4,ATGTGATGTTATATATGTACTTATTTTTTAATAAGG [XGTACX_site1786],8.04 ± 0.25
5,AAAAATATTATGATGTTTATTAGAAAGGAAAAAACT [CACACA_negctrl_site1417],7.74 ± 0.69
6,TTTTTATATTATTTAATGAGAAATAATTATAAACAA [CACACA_negctrl_site553],7.49 ± 0.38
7,GTATATATATATATATGTACATATTTAGAGTTCTGT [XGTACX_site5357],7.87 ± 0.41
8,ATATTTACCATTGTATGTACATATATAAAATATATC [XGTACX_site3237],7.86 ± 0.57
9,AACATATACACGAACACACACACATATATATATATA [CACACA_site502],9.12 ± 0.16
10,TAAAGAAAAAAATGTTGTACTTTATGAAACATATTT [XGTACX_site412],7.83 ± 0.36
11,AAAACAAATGAGTACACACACATAAAAATTGAAAAT [CACACA_site199],8.21 ± 0.071
12,CGTAGCCCCACTAACACACACAAATATACTCAATCA [CACACA_site5587],7.93 ± 0.43
13,AGTTTTTATTAAAACAAAATTTAATTATAACGTTGA [XGTACX_negctrl_site298],7.25 ± 0.49
14,TTATATGTATGAACAAGTACATGCTATAATTATAAA [XGTACX_site1399],7.7 ± 0.35
15,TATATATATATATACACACATACATATATATATTTG [CACACA_site857],9.44 ± 0.52
16,ATATATATATATATATGTACATATATACATATATGT [XGTACX_site1521],9.47 ± 0.63
17,AATAACTATATATGTGTGCACAAAAATTTGACATAA,10.7 ± 0.049
18,AGTAGTCTGGAGAAGAGTACATAGTTTCTGGTAGCT [XGTACX_site2023],7.64 ± 0.71
19,TTTTTTTTTTTTTGATGTACAATAATTAAAGAGTAA [XGTACX_site8403],8.14 ± 0.57
20,TTTTTTTTTTCTTAGGTGCAAAAAATAAGTATATAT [GTGCAC_site9394],10.6 ± 0.59
21,AAAAAAAAAAGAACCCGTACATAAATAATATATATA [XGTACX_site164],8.4 ± 0.76
22,AAAAAAAAAAAAGAAACACACACATTTGTATATAAT [CACACA_site8648],7.6 ± 0.58

# Reference: the supplement of paper PMC11417369
